# Results from PubChem BioAssay AID686979 (National Center for Advancing Translational Sciences (NCATS), 2013).
# Screen size: about 420,000 compounds; about 50,000 (12%) were called active. Inconclusive results, whose numbers are uncertain, are shown with a selection of clear calls. Calls follow the shape of the dose curve; as a rule, active = well fitted inhibition curve with a large enough effect; inconclusive = small, poorly fitted or top-dose-only effect; inactive = flat fitted curve, though single readings scatter. No potency is given beside an inconclusive call; the fits are too rough.
# Assay: qHTS for Inhibitors of human tyrosyl-DNA phosphodiesterase 1 (TDP1): qHTS in cells in presence of CPT; also: nearly all actives have a fitted effect of over 55% in size
# Conditions: chicken DT40 Tdp1-/-;hTDP1 cells + 20 nM CPT, ATP luminescence, 48 h; activity change, negative = growth inhibition: at 46.2 µM (top of the series)
# Method in brief: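 Chicken DT40 Tdp1-/- cells stably complemented with human TDP1 were seeded at 400 cells/well in medium containing 20 nM camptothecin, exposed to pin-transferred compounds, and grown at 37 °C for at least 48 hr. Viability was read as ATP luminescence.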
# % is scaled to controls: 0 for no effect and ±100 for the full control effect; potency is read from the fitted curve at half-maximal effect; tags tell the direction and shape of the fitted curve.
Structure (SMILES),"activity change, negative = growth inhibition",Potency
N#Cc1ccccc1S(=O)(=O)N1CCN(C(=O)c2cn(-c3ccccc3)nc2-c2cccnc2)CC1,inactive: -2.01%,–
CC(C)NC(=O)CN1C(=O)CCn2nc(-c3cn(C)c4ccccc34)cc21,inactive: -12.4%,–
COc1ccccc1CNC(=O)c1ccc2c(=O)n(CC3CCCO3)c(=S)[nH]c2c1 (configuration not stated),–,"inconclusive [inhibitor, partial curve]"
Cc1ccccc1Cn1c(=O)n(-c2ccc(Cl)cc2)c(=O)c2c3c(sc21)CCCC3,inactive: -0.835%,–
CCN1C(=O)[C@H]2[C@@H](c3ccc(-c4cc(C(C)=O)cs4)cc3)N3CCCC[C@@]3(C(=O)OC)[C@H]2C1=O,–,"inconclusive [inhibitor, single point]"
O=C(CCc1nnc2n(Cc3ccccc3)c(=O)c3ccccc3n12)NCCCN1CCCCC1,inactive: -14.9%,–
O=C(NCC(c1cccs1)N1CCOCC1)c1cccc(S(=O)(=O)Nc2ccc(F)cc2)c1 (configuration not stated),–,"inconclusive [inhibitor, single point]"
Cc1cc(NC(=O)CS(=O)(=O)c2cn(Cc3cccc(F)c3)c3ccccc23)no1,–,"inconclusive [inhibitor, single point]"
C=CCOc1ccc(/C=C2\SC(N3CCCCC3)=NC2=O)cc1,–,"inconclusive [inhibitor, single point]"
COc1ccc(NC(=O)C2Cc3cc(S(=O)(=O)N4CCCCC4)ccc3N2C(C)=O)cc1Cl (configuration not stated),–,"inconclusive [inhibitor, single point]"
Cc1cc(F)ccc1NC(=O)C1CCC(CNS(=O)(=O)c2ccc3c(c2)CCCC(=O)N3)CC1 (configuration not stated),–,"inconclusive [inhibitor, single point]"
CCOC(=O)c1ccc(NC(=O)CCc2nc(-c3ccccc3)no2)cc1,–,active: 18.4 µM
CCN1CCN(c2ccc(S(=O)(=O)N3CCCCC3)cc2NC(=O)c2cc3ccccc3o2)CC1,–,"inconclusive [inhibitor, single point]"
Cc1ccccc1NC(=O)c1sc2nc3c(cc2c1N)CN(Cc1ccccc1)CC3,–,"inconclusive [inhibitor, partial curve, poor fit]"
COc1ccc(NC(=O)C2(C)CCN2Cc2ccc3ccccc3c2)cc1OC (configuration not stated),–,"inconclusive [inhibitor, single point]"
CCCCN1C(=O)C(CC(=O)NCCCN(C)C)CC(C(=O)N(C(C)C)C(C)C)=C1C (configuration not stated),inactive: -5.15%,–
CCn1cc(CN2CCOc3ccc(C(O)C4CCCCC4)cc3C2)c(C)n1 (configuration not stated),inactive: -9% [at 9.04 µM],–
COC(=O)[C@@]1(Cc2ccccc2)[C@H]2C(=O)N(Cc3ccccc3)C(=O)[C@H]2[C@H]2CN=C(SCC(=O)c3ccccc3)N21,–,"inconclusive [inhibitor, single point]"
CCn1c(=S)sc2c(=O)n(CC(=O)NC(C)CCc3ccccc3)c(C)nc21 (configuration not stated),–,"inconclusive [inhibitor, single point]"
CC(C)c1ccc(OCCCCCN2CCOCC2)cc1,–,"inconclusive [inhibitor, single point]"
CCOC(=O)CCn1c(=O)c2c(nc(Br)n2Cc2ccccc2)n(C)c1=O,inactive: -15%,–

Structure (SMILES),"activity change, negative = growth inhibition",Potency
COc1ccc(OC)c(S(=O)(=O)NCC(c2cccs2)S(=O)(=O)c2ccc(F)cc2)c1 (configuration not stated),–,"inconclusive [inhibitor, single point]"
O=C(COc1ccc(Br)cc1)Nc1ccc(-c2nnc(-c3ccco3)o2)cc1,–,"inconclusive [inhibitor, single point]"
Cc1ccc(NC(=O)c2ccc(S(=O)(=O)NCc3ccco3)cc2)nc1,–,"inconclusive [inhibitor, single point]"
Fc1cccc(F)c1-n1c(CN2CCCCC2)csc1=S,–,"inconclusive [inhibitor, single point]"
O=C1CC(c2cc([N+](=O)[O-])ccc2Cl)c2c(ccc3ccccc23)N1 (configuration not stated),–,active: 16.4 µM
COc1ccc(C(=O)Nc2ccc3ccccc3n2)cc1OC,–,"inconclusive [inhibitor, single point]"
O=C1NC(=S)/C(=C\c2ccc(-c3ccccc3Cl)o2)S1,–,active: 23.1 µM
CCCn1c(-c2cccc([N+](=O)[O-])c2)nc2c1c(=O)[nH]c(=O)n2Cc1ccccc1,–,active: 20.6 µM
COc1ccccc1C(=O)N1c2ccccc2Sc2ccccc21,–,active: 5.8 µM
O=C1Nc2cc(C(=O)NCCCN3CCOCC3)ccc2S/C1=C/c1ccccc1F,–,"inconclusive [inhibitor, single point]"
Cc1ccc(-n2nc(C)c3c(C)cc(=O)n(CC(=O)Nc4cccc(C)c4C)c32)cc1,inactive: -8.47%,–
COc1ccc(OC)c(CN2CCN(C(=O)CNC(=O)c3ccc(C(C)(C)C)cc3)CC2)c1,–,"inconclusive [inhibitor, partial curve]"
O=C1NC(c2ccc(O)cc2)Nc2ccccc21 (configuration not stated),–,"inconclusive [inhibitor, single point]"
COc1ccccc1NC(=O)CN1CCN(Cc2ccccc2)CC1,inactive: -0.715%,–
Cn1c(/C=C/N(Cc2ccccc2)c2ccccc2)c([N+](=O)[O-])c(=O)n(C)c1=O,–,"inconclusive [inhibitor, single point]"
CCCCOC(=O)C1=C(C)NC(=O)NC1c1ccc([N+](=O)[O-])s1 (configuration not stated),–,"inconclusive [inhibitor, single point]"
COc1cc(C#Cc2c(-c3cncn3C)n(C)c3ccc(-c4ccc(CN5CCOCC5)cc4)cc23)cc(OC)c1,–,active: 5.8 µM
Cc1ccc(S(=O)(=O)N2CCC(C(=O)NC3CC(C)(C)NC(C)(C)C3)CC2)cc1,inactive: -0.0449%,–
CCOC(=O)C(CCCOc1ccc(C(C)CC)cc1)C(=O)OCC (configuration not stated),inactive: -2.67%,–
CC(C)(C)n1nnnc1C(c1cccs1)N(Cc1cccnc1)Cc1ccco1 (configuration not stated),–,"inconclusive [inhibitor, single point]"
CCn1c(=O)c(C(=O)Nc2ccccc2)c(O)c2ccccc21,–,"inconclusive [inhibitor, single point]"
